# Measurements taken from the RNAGym collection of RNA variant scans (doi:10.1073/pnas.2313332121).
# Variants at the floor of the assay are shown more often than the library holds them.
# B1: TPR 5TU (parent)
# chain: GGAUCUUCUCGAUCUAACAAAAAAGACAAAUCUGCCACAAAGCUUGAGAGCAUCUUCGGAUGCAGAGGCGGCAGCCUUCGGUGGCGCGAUAGCGCCAACGUUCUCAACUAUGACACGCAAAACGCGUGCUCCGUUGAAUGGAGUUUAUCAUG
# Variants of: B1
# Experiment: polymerase ribozyme fitness, log enrichment relative to wild type (log ratio); higher = more active; in vitro selection for triplet polymerase activity
# Summary of the method: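 In triplicate, a single round of in vitro selection was run on each mutant library, PCR-built and transcribed, covering one subunit of a heterodimeric triplet polymerase ribozyme. Frozen incubation at −7 °C followed annealing with a biotinylated primer, partner subunit and triplets, and extended constructs were then gel-excised, streptavidin-captured and taken through RT-PCR. Fitness is the logarithm of genotype enrichment over wild-type enrichment, from inverse-variance-weighted replicate averages of Illumina-sequenced inputs and outputs. […] only genotypes with ≥10 input reads and ≥1 read per output were kept.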
row,Variant,polymerase ribozyme fitness (log ratio)
1,G58C G67A,≤ -4.2
2,G58C G67U C79A C85U U102G,≤ -4.2
3,G58C G70A C93U C95U A142G U144A,≤ -4.2
4,G58C G83A C87G U90A A113U G133A G141A,≤ -4.2
5,G58C G84A A106G C125G A137C,≤ -4.2
6,G58C G84A G112U,≤ -4.2
7,G58C G86A C123A G124C C125G A138C,≤ -4.2
8,G58C G92A A106U U127C G133A,≤ -4.2
9,G58C G92C C93U C114A,≤ -4.2
10,G58C G94C,-0.872
11,G58C G94C C96G A115C,≤ -4.2
12,G58C U61G U146G,-3.76
13,G58C U77A A120U A122G,≤ -4.2
14,G58C U144C,0.128
15,G58U A64G A91G A113U U135A,≤ -4.2
16,G58U A64G G68A,≤ -4.2
17,G58U C69A U111C G124U U139C,≤ -4.2
18,G58U C85A C95A,≤ -4.2
19,G58U G68A G74A U78A C93A A147C,≤ -4.2
20,G58U G68A G94A U111C U127A,≤ -4.2
21,G58U G81A C93A C103G A137G,≤ -4.2
22,G58U G84A U90G,≤ -4.2
23,G58U G100U,≤ -4.2
24,G58U G128U,-3.02

row,Variant,polymerase ribozyme fitness (log ratio)
1,G58U G141C,0.501
2,G58U U61A U90A A142G,≤ -4.2
3,G58U U61G C63U G74C G141C,≤ -4.2
4,G58U U77A C118U,≤ -4.2
5,G58U U82A A142G,-0.998
6,G58U U151C,≤ -4.2
7,G59A,-0.0739
8,G59A A60C U90G,≤ -4.2
9,G59A A60G,-0.0653
10,G59A A60G A64C G70U C79A U82A G83C A91C,≤ -4.2
11,G59A A60G C85U C118G A122C U127G,≤ -4.2
12,G59A A60U C87A G128A,≤ -4.2
13,G59A A66C G88A U134A G143C A147U U151A,≤ -4.2
14,G59A A66G G68A A91U C108G G140C,≤ -4.2
15,G59A A91G G100A C131A U135G,≤ -4.2
16,G59A A97U A122G G128A,≤ -4.2
17,G59A A115G G140A,≤ -4.2
18,G59A C75G C96A C99G A121C,≤ -4.2
19,G59A C75G G94U C95U,-3.76
20,G59A C76A A113G A121G,≤ -4.2
21,G59A C76G C85G,≤ -4.2
22,G59A C79U,-3.86
23,G59A C85U,-1.79
24,G59A C87A,≤ -4.2

row,Variant,polymerase ribozyme fitness (log ratio)
1,G59A C87G,≤ -4.2
2,G59A C87G G140C,≤ -4.2
3,G59A C99A G140U,-3.99
4,G59A C118G U130A C132G G140A,≤ -4.2
5,G59A C132G U139C,-2.96
6,G59A G62U C85U A91C,≤ -4.2
7,G59A G71C C85U G136A G143C U148G,≤ -4.2
8,G59A G80C G83A C114U C116U,≤ -4.2
9,G59A G84U C93G C95U C108G,≤ -4.2
10,G59A G86A G143U U151G,≤ -4.2
11,G59A G86U A91C C93U A142U U144G,≤ -4.2
12,G59A G86U A119U G140U,-3.26
13,G59A G94A A150C,≤ -4.2
14,G59A U77A C105A,≤ -4.2
15,G59A U78A G92U C96A C114U A121U,≤ -4.2
16,G59A U82C U134A,-2.59
17,G59A U90G A97U U135G G136A,≤ -4.2
18,G59C A66U C85U,≤ -4.2
19,G59C A89U C93G C108U G117U A122U U135G A147C,≤ -4.2
20,G59C A91C A119G,≤ -4.2
21,G59C A91U C93A A106C A138G,≤ -4.2
22,G59C A107U G143U,≤ -4.2
23,G59C A119C,-0.18
24,G59C A120U A122C A147G,-1.22

row,Variant,polymerase ribozyme fitness (log ratio)
1,G59C A142C,-0.57
2,G59C C63U A138U G141A,≤ -4.2
3,G59C C69A G133C,-1.75
4,G59C C75U C132G,≤ -4.2
5,G59C C76A C96U A106G A119U G140C,≤ -4.2
6,G59C C85A A107U,≤ -4.2
7,G59C C85G C95U C116A,-2.38
8,G59C C93U C116U U135G,-3.78
9,G59C C95A C99G,≤ -4.2
10,G59C C96U U146A,0.268
11,G59C G67C C87U C118A A119U,≤ -4.2
12,G59C G74A G80C U127G A142G,≤ -4.2
13,G59C G86C C118A,-2.85
14,G59C G86U U104G U135G U145A,≤ -4.2
15,G59C G94C G128A C132A G133C,≤ -4.2
16,G59C G100A A115C U144C,≤ -4.2
17,G59C G126A,0.0741
18,G59C U61A,-1.51
19,G59C U61A A64G G70C A107C A110U A113U,≤ -4.2
20,G59C U61G C96G C105U A115U A150U,≤ -4.2
21,G59C U77G,≤ -4.2
22,G59C U82G G94A C99G U139C G143C,≤ -4.2
23,G59U A60C,-2.96
24,G59U A91U C95U G140U,≤ -4.2

row,Variant,polymerase ribozyme fitness (log ratio)
1,G59U A91U G141A,≤ -4.2
2,G59U A120U A122U,-0.451
3,G59U C69G G88C C125A,≤ -4.2
4,G59U C75A C79U C85A A98G A115G U135G,≤ -4.2
5,G59U C75A C87G G88A C103U A121U,≤ -4.2
6,G59U C75U C87U C93U U127G U148A,≤ -4.2
7,G59U C76U C105A A113U C116U,≤ -4.2
8,G59U C87A C103U U104G A107U U144A,≤ -4.2
9,G59U C93A G152U,≤ -4.2
10,G59U C96A,-0.703
11,G59U C99U C132U,-1.59
12,G59U G68A G83A A89U G94U G128U,≤ -4.2
13,G59U G68C C85A,≤ -4.2
14,G59U G68U A97G U144A,≤ -4.2
15,G59U G74U C75A G88C,≤ -4.2
16,G59U G84U,-2.72
17,G59U G92A A98G A113C U151A,≤ -4.2
18,G59U G124C U134G U146A,-3.17
19,G59U U61A A89U C95G C103G C105U C114U G136U,≤ -4.2
20,A60C A89C C105G,≤ -4.2
21,A60C C63U U77C G128U A150G G152A,≤ -4.2
22,A60C C69U C93U C114U U135A G140A,≤ -4.2
23,A60C C75U A91U G141A U146A,≤ -4.2
24,A60C C76U A91U C93U A106G C125G,≤ -4.2

row,Variant,polymerase ribozyme fitness (log ratio)
1,A60C C85A C125G U144G,-2.67
2,A60C C85G G86A A89U A110G U135G U144G,≤ -4.2
3,A60C C87A A98U,≤ -4.2
4,A60C C93A U102G C108G,≤ -4.2
5,A60C C108G C123A A142G,≤ -4.2
6,A60C G71A C85A G143C,≤ -4.2
7,A60C G71U U77A C105U,≤ -4.2
8,A60C G81C C85U A107C U135G,≤ -4.2
9,A60C G83U A121U,-2.35
10,A60C U61A C85G C93A A120C,≤ -4.2
11,A60C U61A C87A U104A A147U,≤ -4.2
12,A60C U82G G84A,-1.71
13,A60G A64C G70A C93U A113U C116G U139G,≤ -4.2
14,A60G A73U C93U,-1.38
15,A60G A150G,-0.0266
16,A60G C72U G88U,≤ -4.2
17,A60G C75A C95U C114U A150C,≤ -4.2
18,A60G C75A G83C G117U,≤ -4.2
19,A60G C76A A91G C95U A107C,≤ -4.2
20,A60G C76U G86C A97G C108G,≤ -4.2
21,A60G C87G,≤ -4.2
22,A60G C93G,-3.44
23,A60G C99G C105U A107G C129U,≤ -4.2
24,A60G C105G U145G,-1.64

row,Variant,polymerase ribozyme fitness (log ratio)
1,A60G G67U C93U C99U C129U,≤ -4.2
2,A60G G68U C85A G94A A147C,≤ -4.2
3,A60G G70C A89C,-3.24
4,A60G G71A A106U,≤ -4.2
5,A60G G71U G88U C95U C105U C125G,≤ -4.2
6,A60G G80C G140A G141U,≤ -4.2
7,A60G G81A A97U C99U,-1.35
8,A60G G83A G86A A97C C125G C131G G136A G152U,≤ -4.2
9,A60G G84A C118A,-0.875
10,A60G G84U G86A G128U A138G,≤ -4.2
11,A60G G94A,0.0761
12,A60G U77G C87U C132G,≤ -4.2
13,A60G U78A A106G C118U,≤ -4.2
14,A60G U78C C87A A115U U134G A147C,≤ -4.2
15,A60G U90G,≤ -4.2
16,A60G U102A U109G A115C,-3.77
17,A60G U134A,-1.8
18,A60U A91U C96A C103A A115U,≤ -4.2
19,A60U A106G,-0.0172
20,A60U C85A U101A A119G U127C,≤ -4.2
21,A60U C85U A91G C132U,≤ -4.2
22,A60U C87G G141A,≤ -4.2
23,A60U C93U U151G,≤ -4.2
